Whole data set: some 110,000 compounds, median “z-score” near -0.1, cut for the highest 2% near 2. The list shows a part of the results. The source made the active and inactive calls.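 The calls were made as follows: active = z-score in the third read window above 3 or below -3; inactive = the rest.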 Residues, ends and D or L forms follow the SMILES beside them. *: point of attachment. Boc = CC(C)(C)OC(=O)*
Target: Metabotropic glutamate receptor 8 (Rattus norvegicus) (UniProt P70579)
Test: mGluR8 Gi/Go-coupled signaling modulation – cell-based, rat, thallium flux, HTS, primary screen (AID 488969)
Settings: HEK293 rat mGluR8, GIRK (G protein-gated inwardly rectifying potassium channel) thallium flux, FluoZin2; at 10 µM; stronger effect = higher value; submaximal glutamate (EC20) added with thallium

UniProt P70579, sequence (P70579 whole entry, looked up): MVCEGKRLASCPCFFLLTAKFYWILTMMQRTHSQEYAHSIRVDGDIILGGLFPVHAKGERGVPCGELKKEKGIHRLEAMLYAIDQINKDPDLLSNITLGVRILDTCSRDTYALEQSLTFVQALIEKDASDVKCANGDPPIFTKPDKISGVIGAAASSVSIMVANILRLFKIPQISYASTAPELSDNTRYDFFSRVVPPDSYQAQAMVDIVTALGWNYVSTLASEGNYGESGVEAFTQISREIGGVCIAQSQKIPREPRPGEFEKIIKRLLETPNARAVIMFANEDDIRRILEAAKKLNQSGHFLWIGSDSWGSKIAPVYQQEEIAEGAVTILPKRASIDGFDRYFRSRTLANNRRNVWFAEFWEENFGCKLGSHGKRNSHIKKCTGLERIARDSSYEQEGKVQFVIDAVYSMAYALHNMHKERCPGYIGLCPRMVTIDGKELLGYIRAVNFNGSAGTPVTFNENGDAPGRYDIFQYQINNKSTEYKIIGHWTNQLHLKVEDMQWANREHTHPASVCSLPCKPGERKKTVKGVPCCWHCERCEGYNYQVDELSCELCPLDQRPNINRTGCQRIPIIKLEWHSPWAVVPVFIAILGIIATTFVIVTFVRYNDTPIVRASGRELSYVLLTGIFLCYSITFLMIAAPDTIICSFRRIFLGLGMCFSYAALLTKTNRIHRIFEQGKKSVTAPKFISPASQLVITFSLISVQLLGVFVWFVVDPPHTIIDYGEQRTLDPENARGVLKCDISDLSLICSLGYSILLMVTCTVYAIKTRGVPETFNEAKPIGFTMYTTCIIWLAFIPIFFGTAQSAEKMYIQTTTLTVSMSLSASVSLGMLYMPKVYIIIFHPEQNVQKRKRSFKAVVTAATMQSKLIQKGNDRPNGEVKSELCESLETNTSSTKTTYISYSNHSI

SMILES	z-score
COc1cc(SC#N)ccc1N=Cc1c(C)[nH]n(-c2ccc(C)cc2)c1=O	0.469
CS(=O)(=O)N(CC(=O)NC1CCCCCC1)Cc1ccc(Cl)cc1	0.0818
O=C(O)c1cnn(-c2ccccc2)c1-n1cccc1	-1.69
O=C(NCc1ccc2c(c1)OCO2)C1CCCN(S(=O)(=O)c2cccnc2)C1 (stereo not drawn)	0.0477
COc1ccc(CCNC(=O)C(=O)NCc2ccc(C)cc2)cc1OC	-0.0887
CCOC(=O)N1CCN(C(=O)CCSc2ccccc2)CC1	0.0832
O=C(O)c1ccc2c(=O)[nH]c(CN3CCOCC3)nc2c1	0.0476
CN(C)/C(CN1CCCCC1)=C1\N=C(c2ccccc2)OC1=O	0.195
Fc1ccc(-c2nc3ccccc3c3nc4ccccc4n23)cc1	-0.798
Cc1ccc(S(=O)(=O)NC(CC(=O)NCc2ccco2)c2ccco2)cc1 (stereo not drawn)	0.203
C/C=C/c1ccc(OCCCNC)c(OC)c1	0.0523
CCOC(=O)C(Cc1ccc(O)cc1)NC(=O)CNC(=O)C(CC(C)C)NC(=O)OC(C)(C)C (stereo not drawn) (Boc-Leu-Gly-Tyr-OEt; configuration not given here)	0.106
CC(=O)OCc1cc(=O)n(C)c(=O)n1C	-0.366
COCCCNC(=O)CCn1c(=O)c2ccccc2n(CC(=O)Nc2c(C)cccc2C)c1=O	-0.371
CCn1c(SCC(=O)NCCc2ccc(F)cc2)nnc1-c1cccs1	-0.241
Cc1ccc(NC(=O)CN(C)C(=O)CSc2nc3ccccc3c(=O)n2Cc2ccco2)cc1	-0.0496
Cc1c(N2C(=O)c3ccc(Br)cc3C2=O)c(=O)n(-c2ccccc2)n1C	0.29
COc1ccc(-n2c(SCc3nnc(-c4ccccc4)o3)nnc2-c2ccccc2)cc1	-0.24
COC(=O)Nc1ccc(S(=O)(=O)N2CCCc3ccccc32)cc1	0.814
O=C(CN1CCN(CC(=O)Nc2ccccn2)CC1)Nc1ccccn1	-0.212
CCC(CC)=NNC(=O)c1ccccc1OCc1ccc(F)cc1	-0.381
CSc1nc2sc3c(c2c(=O)[nH]1)CCC(C)C3 (stereo not drawn)	0.17

SMILES	z-score
CC(C)C[C@H](NC(=O)OC(C)(C)C)C(=O)N/N=C/c1ccc2nccnc2c1	-0.19
C=C(C)C1CC=C(C)/C(=N/NC(=O)COc2cccc(C)c2)C1 (stereo not drawn)	active: 8.9
Cc1ccc(-c2nnc(-c3ccc(NC(=O)c4cccs4)cc3)o2)cc1	-0.0655
CN(C)S(=O)(=O)c1ccc(NC(=O)CSc2ncnc3ccccc23)cc1	-0.779
CCOc1nc(NCCc2ccc(OC)c(OC)c2)nc(N2CCN(c3ccc(OC)cc3)CC2)n1	0.0164
CCN(CC)C(=O)c1c2c(nc3ccccc13)-c1ccccc1CC2	-0.522
CCNC(=O)C1CC(=O)N(Cc2ccc(F)cc2)C(=Nc2ccc(OC)cc2)S1 (stereo not drawn)	-0.481
CCN=c1sc(C(=O)OC)cc(=O)n1CC	-0.358
CN(C)C(=O)c1cc(Cl)ccc1Sc1cc(Cl)ccc1Cl	0.0382
CN1CCN(c2ccc(NC(=O)Cc3ccccc3)cc2)CC1	0.552
COc1ccc(CN(C(=S)Nc2ccccc2)C2CC(=O)N(c3ccc(F)cc3)C2=O)cc1 (stereo not drawn)	-0.141
CCOC(=O)NN1C(=O)c2ccccc2NC1c1ccccc1 (stereo not drawn)	-0.112
CCN(CC)c1ccc(NC(=O)Nc2ccc(C(C)=O)cc2)cc1	0.209
COc1ccc2c(c1)C1NC(=S)NC(C)(O2)C1C(=O)Nc1ccc(Cl)cc1 (stereo not drawn)	-0.5
COC(=O)CCC(=O)Nc1ccc(S(=O)(=O)N2CCCCCC2)cc1	0.281
Nc1nc(Br)c2c(F)cccc2c1-c1ccc(F)cc1	0.0126
Cc1cccc(-c2c3c(=O)n(C)c(=O)n(C)c3cn2C2CCCCC2)c1	-0.809
COc1ccc(/C=C/C(=O)NC(=S)NNC(=O)c2cccnc2)cc1	-0.12
Cc1cc(=O)oc2cc(Oc3ccc([N+](=O)[O-])cc3[N+](=O)[O-])ccc12	0.0534
Cc1c(N2C(=O)c3ccccc3C2=O)c(=O)n(-c2ccccc2)n1C	0.287
N#Cc1cnn(-c2ccccc2)c1N	0.286
COc1cccc(CNC(=O)Cc2ccc(Br)cc2)c1	-0.136

SMILES	z-score
O=C(Nc1ccccc1)N(Cc1ccc(Cl)cc1)CC(O)C(F)(F)F (stereo not drawn)	0.189
Cc1cc(Cl)c(S(=O)(=O)NCc2cccnc2)cc1OCC(=O)NC1CCCCC1	-0.0894
CCOc1ccc(-c2ccc(C=O)o2)c([N+](=O)[O-])c1	-0.55
CCC(NC(=O)C1CCC1)c1ccccc1 (stereo not drawn)	-0.0824
C=C(C)COc1ccc2c(C)c(CC(=O)OC)c(=O)oc2c1C	-0.319
CCNc1nnc(-c2ccc(C)cc2)o1	2.74
Cc1nc2ccc(Nc3nc4cc(S(=O)(=O)N5CCOCC5)ccc4o3)cc2s1	-0.359
O=C(COc1ccc(Cl)cc1)N1CCN(c2ccc([N+](=O)[O-])c(N3CCOCC3)c2)CC1	-0.0381
Cc1ccc2cccc(NC(=O)c3ccc(Br)o3)c2n1	-0.503
O=C(NCc1ccccc1)Nc1cccn(Cc2cccc(F)c2)c1=O	-0.0902
CCCCOc1ccc(-c2ncc(Cl)cn2)cc1	-0.335
O=C(O)c1cc(-c2ccccc2)n(-c2ccccc2)n1	0.0224
COc1ccc(N2C(=O)c3ccccc3NC23CCCCC3)cc1	-0.554
COc1ccc(CCNc2oc(-c3ccc(OC)c(OC)c3)nc2P(=O)(OC)OC)cc1OC	-0.308
COc1ccc(CCNC(=O)c2c(O)c3c([nH]c2=O)CCCC3)cc1	-0.378
CC1CC(c2ccccc2)n2nc(N3C(=O)c4ccccc4C3=O)nc2N1 (stereo not drawn)	1.04
COc1cc(-c2nc3ccccn3c2/N=C/c2cc(OC)c(OC)c(OC)c2)ccc1O	-0.685
O=C(Nc1nc(-c2ccccc2)c(-c2ccccc2)s1)c1ccc(S(=O)(=O)N2CCCC2)cc1	-0.193
COc1ccc(NC(=O)/C(C#N)=C\c2cc(C)n(-c3ccc(Oc4ccc([N+](=O)[O-])cn4)cc3)c2C)cc1	0.0192
CCOC(=O)Nc1ccc2c(c1)Sc1ccccc1N2C(=O)CCN1CCOCC1	0.597
Cc1ccc(OCc2nnc(SCc3cc(=O)[nH]c4ccccc34)n2-c2ccccc2)cc1	-0.236
COc1ccc(Cl)cc1-c1nc(-c2ccc(Br)o2)no1	-0.0916

SMILES	z-score
CN(C)CCNC(=O)C(C(=O)c1ccc(F)cc1)n1ccccc1=O (stereo not drawn)	0.832
C=CCn1c(SCc2ccc(C(=O)Nc3ccccc3)cc2)nnc1-c1ccccc1	-0.127
Cc1ccc(-c2noc(CSc3nnc(-c4ccccc4)n3C)n2)cc1	-0.179
CC(C)C[C@H](NC(=O)OC(C)(C)C)c1nnc(SCc2ccccc2)o1	-1.44
O=C(/C=C/Nc1ccc(F)cc1)c1ccco1	-0.125
CCOc1ccc2[nH]c(=O)c(CN(Cc3nnnn3Cc3ccccc3)CC3CCCO3)cc2c1 (stereo not drawn)	-0.254
Cc1cccc(C(=O)NC(=S)Nc2ccc(S(=O)(=O)N3CCCCC3)cc2)c1	-0.0168
CNC(=O)c1ccc(-n2nc(C)cc2-c2ccccc2)cc1	-0.167
COc1ccc(/C=N/NC(=O)CCCCCNC(=O)c2ccccc2)cc1	-0.242
CCCC(=O)Nc1ccccc1NC(=O)CCC	0.00845
CC(C)CNC(=O)c1ccccc1SCC(=O)NC12CC3CC(CC(C3)C1)C2	-0.295
COc1ccc(CCNC(=O)COc2ccc(-c3ccccc3)cc2)cc1OC	-0.348
CCOC(=O)C1CCCN(C(=O)c2sc3nc(C)nc(N(CC)CC)c3c2C)C1 (stereo not drawn)	-0.328
Brc1cnc(N2CCCCC2)nc1N1CCOCC1	-0.468
CCCCNC(=O)n1c(=O)oc2ccc(Cl)cc21	-0.0975
CCN(CC)S(=O)(=O)c1ccc(OC)c(NS(=O)(=O)c2ccc(F)cc2)c1	-0.405
O=S(=O)(Nc1ccc(F)cc1)c1ccc(NC(=S)Nc2ccccc2)cc1	-0.128
Cc1cc(C)cc(N(C(=O)CNS(=O)(=O)c2ccccc2)C(C(=O)NCc2ccccc2)c2ccc(C)o2)c1 (stereo not drawn)	-0.187
CC(C)(C)C(=O)c1cnc(Nc2ccccc2)s1	0.112
Cc1ccc(S(=O)(=O)N2CCN(S(=O)(=O)N(C)C)CC2)cc1	0.217
O=C1c2ccccc2C(=O)C1Cc1cccc2ccccc12	-0.551
CCCC1CC(C)(C(=O)CSc2n[nH]c(-c3ccccc3)n2)OC1=O (stereo not drawn)	-0.944

SMILES	z-score
CCOC(=O)/C(C#N)=C1/SC(CCO)C(=O)N1c1ccccc1 (stereo not drawn)	-0.202
O=C(CCC(=O)c1cccs1)NC(c1ccccc1)c1ccccc1	-0.119
O=C(c1ccc(Cl)cc1)c1ccc(OCC(O)CN2CCOCC2)cc1 (stereo not drawn)	0.402
CC(C)CCN1CC(C(=O)NCc2ccccc2)CC1=O (stereo not drawn)	-0.0931
O=C(COC(=O)CCc1c[nH]c2ccccc12)NCc1ccccc1	-0.145
Cc1csc(=S)n1-c1ccccc1	-0.452
O=C1CCC([N+](=O)[O-])C(c2ccc(Cl)cc2)N1 (stereo not drawn)	-0.101
COc1ccc(Cc2nnc(SCC(=O)Nc3nc(C)cs3)o2)cc1	0.423
O=C(NCc1ccccc1)c1ccc2nc(-c3ccco3)c(-c3ccco3)nc2c1	-0.000879
Cc1ccc(-c2nnc(-c3ccccc3)o2)cc1Br	-0.207
N=c1c(C(=O)NCc2ccc(F)cc2)cc2c(=O)n3ccccc3nc2n1Cc1cccnc1	-0.514
CCCOc1ccc(/C=N/NC(=O)C(C)Sc2ccccn2)cc1OCC (stereo not drawn)	-0.455
C=CCn1c(SCCC(=O)O)nnc1-c1cccs1	0.352
CC1CCc2c(sc(NC(=O)COC(=O)c3ccccc3NCc3ccco3)c2C#N)C1 (stereo not drawn)	-0.152
COc1cccc(N(C(=O)c2ccco2)c2nc(-c3sc(NC(=O)c4ccco4)nc3C)cs2)c1	0.177
NC(=O)c1nsc(C(=O)N(CCc2ccccc2)C(C(=O)NC2CCCC2)c2ccco2)c1N (stereo not drawn)	-0.644
CCc1cccc(CC)c1NC(=O)c1cccc(N)c1	0.18
O=C(Nc1cccc(S(=O)(=O)Nc2ccccc2Cl)c1)c1ccc(N2CCCC2)c([N+](=O)[O-])c1	-0.269
Cc1ccc2nc(C)c(C(=O)N/N=C/c3cccs3)n2c1	0.0322
CN(C)S(=O)(=O)Oc1ccccc1C(=O)Nc1cccc(C(F)(F)F)c1	-0.828

— PubChem BioAssay AID488969 (Vanderbilt High Throughput Screening Facility, 2010)
